# Results taken from PubChem BioAssay AID686978 (National Center for Advancing Translational Sciences (NCATS), 2013).
# About 64,000 (15%) of roughly 420,000 compounds were called active. The shares of active, inactive and inconclusive entries below differ from those in the screen. Calls come from the whole dose curve; as a rule, active = well fitted inhibition curve with a large enough effect; inconclusive = small, poorly fitted or top-dose-only effect; inactive = flat fitted curve, though single readings scatter. Potencies of inconclusive entries are left out as doubtful fits.
# Assay: qHTS for Inhibitors of human tyrosyl-DNA phosphodiesterase 1 (TDP1): qHTS in cells in absence of CPT; note: nearly all actives have a fitted effect of over 55% in size
# Conditions: DT40 Tdp1-/- hTDP1 cells, no CPT, ATP luminescence, 48 h; activity change, negative = growth inhibition: at 46.2 µM (top of the series) unless noted
# In short: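 Readout: luminescence from CellTiter-Glo after 30 min in the dark at RT. Cells: DT40 Tdp1-/- with stable hTDP1, 400/well. Exposure: compounds alone, ≥48 hr, 37 °C.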
# % is set by controls: 0 for no effect and ±100 for the full control effect; potency is the fitted concentration of half-maximal effect; tags give direction and shape of the fitted curve.
SMILES,Potency,"activity change, negative = growth inhibition"
C=C1C=C(C(F)F)n2ncc(C(=O)NCc3ccc(OC)c(OC)c3)c2N1,"inconclusive [inhibitor, single point]",
COc1ccc(C(=O)C2CCCN(C(=O)c3cnsn3)C2)c(C)c1 (configuration not stated),"inconclusive [inhibitor, single point]",
CC(C)c1noc2ncc(C(=O)c3cc(Cl)cc(Cl)c3O)cc12,,inactive: -4.94%
O=C(CCN1C(=O)/C(=C\C=C\c2ccccc2)SC1=S)Nc1ccc(C(=O)O)cc1,,inactive: 4.18%
CCc1nnc(NS(=O)(=O)c2ccc(NC(=S)NC(=O)c3ccc(F)cc3)cc2)s1,,inactive: 1.1%
Cc1cccc(-n2nnnc2-c2cnccc2C(F)(F)F)c1C,"inconclusive [inhibitor, partial curve, poor fit]",
O=C(COC(=O)c1c[nH]c2ccccc12)NC1CCCCC1,"inconclusive [inhibitor, single point]",
O=C(CCC1CCCC1)Nc1nnc(-c2ccc3c(c2)OCO3)s1,"inconclusive [inhibitor, single point]",
CC12CC3OC3CC1CCC1C2CCC2(C)C1CCC21OCCO1 (configuration not stated),"inconclusive [inhibitor, single point]",
Cc1c(Cl)cccc1-n1c(SCC(=O)NCc2cccs2)nnc1-c1ccncc1,"inconclusive [inhibitor, partial curve]",
COc1ccc(S(=O)(=O)NCc2cccnc2)c2ccccc12,,inactive: -18.6%
CCc1ccccc1NC(=O)N1CCc2cc(OC)c(OC)cc2C1CC(=O)OC (configuration not stated),active: 18.4 µM,
Cc1ccc(Cl)cc1N1CCN(C(=O)CCCn2c(=O)c3cccn3c3cccnc32)CC1,active: 29.1 µM,
O=C(NCc1ccco1)c1c2c(nc3ccccc13)CCC2,active: 20.6 µM,
CCOc1ccc(S(=O)(=O)N(CC(=O)NCc2ccncc2)c2ccc(C)cc2)cc1,"inconclusive [inhibitor, single point]",
O=S(=O)(Nc1ncccn1)c1ccc(NC(=S)Nc2ccc(Cl)cc2)cc1,"inconclusive [inhibitor, partial curve, poor fit]",
COc1cccc(NC(=O)COC(=O)CC(NC(N)=O)c2ccc(Cl)cc2)c1 (configuration not stated),,inactive: 7.18%
O=C(NC1CCCCC1)C(c1cccnc1)N(C(=O)CCl)c1ccccc1Cl (configuration not stated),"inconclusive [inhibitor, single point]",
CCC/C=C(\CCC)C(NC(=O)Cc1ccccc1)c1ccc(C(=O)OC)cc1 (configuration not stated),"inconclusive [inhibitor, single point]",
S=C(NCCNC(=S)Nc1ccccc1)Nc1ccccc1,,inactive: -4.37%
COC(=O)c1ccc(NC(=O)COC(=O)C2CC(=O)N(Cc3ccccc3)C2)cc1 (configuration not stated),,inactive: 7.89%
CC1CCN(C(=O)c2cc(S(=O)(=O)N3CCOCC3)ccc2N2CCCC2)CC1,"inconclusive [inhibitor, single point]",
Cc1ccc(S(=O)(=O)N2C[C@H]3[C@H]4C(=O)N(c5ccccc5)C(=O)[C@H]4C[C@H](OC(=O)Nc4c(C)noc4C)[C@@]3(O)C2)cc1,"inconclusive [inhibitor, partial curve]",
CCn1c(C(O)c2cc(OC)ccc2OC)nc2ccccc21 (configuration not stated),,inactive: -0.141%

SMILES,Potency,"activity change, negative = growth inhibition"
O=C(CN(CC1CCCO1)C(=O)CCC(=O)Nc1ccccn1)NCC1CCCO1 (configuration not stated),,inactive: -21.6%
Cc1cc(C)cc(-n2c3ccc(NC(=O)Cc4cccc5ccccc45)cc3c(=O)n2C)c1,active: 3.26 µM,
Cc1ccc(C)c(Nc2nc3c(S(=O)(=O)c4ccc(Br)cc4)nnn3c3ccsc23)c1,active: 20.6 µM,
Cc1nc2cc(-c3cccc(F)c3)nn2c(C)c1CCC(=O)NC(C)c1ccc2c(c1)OCCO2 (configuration not stated),"inconclusive [inhibitor, single point]",
O=C(Nc1cccc(NC(=O)C2C3CC4OC(=O)C2C4C3)c1)c1ccccc1 (configuration not stated),,inactive: -2.5%
CC(=O)Nc1ccccc1P(=O)(c1ccccc1)c1ccccc1OC(C)=O (configuration not stated),,inactive: -1.76%
O=C(COC(=O)c1ccc(O)cc1)Nc1ccc(OC(F)F)cc1,active: 16.4 µM,
CCC(C)C(=O)Nc1nnc(SCC(=O)NC(C)(C)C)s1 (configuration not stated),,inactive: -12.5%
COc1cccc(N(CC(=O)NCCSCc2ccc(C)cc2)S(C)(=O)=O)c1,"inconclusive [inhibitor, single point]",
Cc1ncc2c(c1CNC(=O)c1ccc3c(c1)OCO3)CCN(C(=O)c1noc3c1CCCC3)C2,,inactive: -11.8%
CCN(c1ccccc1)c1nc2ccsc2c(=O)s1,"inconclusive [inhibitor, single point]",
Cc1cccc(N2CCN(C(=O)CCC(=O)NNc3nc4ccccc4c4nc(C)nn34)CC2C)c1 (configuration not stated),active: 23.1 µM,
CC1(C)CC(N2CCN(C(c3ccccc3)c3ccccc3)CC2)=CC(=[N+]2CCCCC2)C1,active: 0.164 µM,
CCN1/C(=C/c2ccc3cc(C)cc(C)c3[n+]2CC)Sc2cc(C)ccc21,active: 0.184 µM,
CCc1n(CC(O)COCC2CC=CCC2)c2ccccc2[n+]1C (configuration not stated),"inconclusive [inhibitor, partial curve]",
O=C(NC(Cc1ccccc1)C(=O)O)c1ccc(S(=O)(=O)N2CCCC2)cc1 (configuration not stated),,inactive: -2.7%
CS(=O)(=O)N(Cc1ccc(C(=O)N2CCc3ccccc3C2)cc1)c1ccccc1,"inconclusive [inhibitor, single point]",
Cc1nc(C(=O)NCC(=O)c2ccc(Cl)cc2)c(C(F)(F)F)o1,,inconclusive: -32.7% [inhibitor]
CCC1CN(S(=O)(=O)c2ccc3c(c2)NC(=O)CC(=O)N3)c2cc(Cl)ccc2O1 (configuration not stated),active: 20.6 µM,
NC(=O)COC(=O)CSc1cccc2cccc(Cl)c12,"inconclusive [inhibitor, single point]",
COc1ccc(OC)c(C(=O)N2CCC(C(=O)c3ccc(F)cc3)CC2)c1,"inconclusive [inhibitor, partial curve, poor fit]",
CCc1ccccc1NC(=O)CN1C(=O)COc2ccc(S(=O)(=O)Nc3ccccc3)cc21,active: 25.9 µM,
O=S(=O)(NCCOc1ccccc1Cl)c1ccc2oc3ccccc3c2c1,"inconclusive [inhibitor, single point]",
